# Measurements as given in the supplement of paper PMC4166925.
# ± gives the standard deviation of the averaged measurements. The full ranking holds about 33,000 sequences; the median of “E-score (dimensionless, -0.5 to 0.5)” is about -0.046, and the highest 2% start at about 0.36. The list shows a part of the results.
# Tested on: T1, SpTbr T-box DNA-binding domain (GST fusion)
# T1 sequence: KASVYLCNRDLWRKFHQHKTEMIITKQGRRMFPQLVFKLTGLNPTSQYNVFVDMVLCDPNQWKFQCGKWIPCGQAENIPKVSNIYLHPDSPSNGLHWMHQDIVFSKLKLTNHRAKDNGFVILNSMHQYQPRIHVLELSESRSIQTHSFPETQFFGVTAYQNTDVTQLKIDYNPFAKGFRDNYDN
# Test: PBM E-score of 8-mer (E-score (dimensionless, -0.5 to 0.5)); Tbr is Tbrain of the sea star Patiria miniata (Pm) or the sea urchin Strongylocentrotus purpuratus (Sp); higher = stronger binding preference; most listed sequences are background and not binding sites
# Conditions: the construct has about 5 more residues each side
# Method: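 Universal protein-binding microarray (Agilent AMADID 016060, 60-bp probes with a 35-bp variable region) incubated with 200 nM GST-fused Strongylocentrotus purpuratus Tbr T-box DNA-binding domain (residues 362-554) in PBS pH 7.5. Scored for every ungapped 8-mer (given with its reverse complement) as E-score (range -0.5 to 0.5; >0.45 counts as bound) and Z-score of median probe intensity. Two replicate arrays (datasets 1 and 2).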
# 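Also: protein at 200 nM in PBS on universal double-stranded arrays.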
row,Sequence,PBM E-score of 8-mer
1,AAGAGACC,-0.221 ± 0.038
2,GTATTGAC,-0.0627 ± 0.015
3,ACGACCGA,0.00979 ± 0.0015
4,GGGGAAAC,-0.22 ± 0.053
5,GACACTCC,0.316 ± 0.0096
6,CCAGGAGC,-0.129 ± 0.014
7,AAGAGCCA,-0.0986 ± 0.0073
8,GACACATC,0.363 ± 0.028
9,CCTTTTAA,0.0516 ± 0.015
10,CTGCGATA,0.0968 ± 0.04
11,CAAGCCGC,0.048 ± 0.039
12,GCTTTGTA,-0.151 ± 0.11
13,ATTGCATG,-0.233 ± 0.0087
14,CCCTGCCC,-0.128 ± 0.03
15,AGTAAATG,-0.11 ± 0.024
16,AACGATCC,-0.0179 ± 0.014
17,ACTTTGAG,0.0979 ± 0.027
18,ACGGTACA,-0.124 ± 0.018
19,AATGGTCG,-0.231 ± 0.15
20,AAGGGGGT,0.0599 ± 0.024
21,CAGTCCTC,-0.0834 ± 0.035
22,ATCCCGTC,-0.166 ± 0.0095
23,TCATGAGA,-0.163 ± 0.00029
24,CAAAGGAG,-0.279 ± 0.053
25,CATGACGA,-0.131 ± 0.022

row,Sequence,PBM E-score of 8-mer
1,GACGGCCA,-0.0774 ± 0.042
2,ATAAAGAG,-0.0829 ± 0.068
3,AAACGTGT,0.368 ± 0.018
4,CACTGATG,0.073 ± 0.046
5,GCGCCGTA,0.111 ± 0.11
6,ACTTATAA,-0.0689 ± 0.0088
7,TCTGAGAA,-0.238 ± 0.12
8,ATAAGTCA,-0.102 ± 0.017
9,CAAGCCCG,-0.195 ± 0.02
10,AGTAGCAG,-0.11 ± 0.1
11,ATCGCGAG,0.255 ± 0.0054
12,GAAGTTAC,-0.0673 ± 0.012
13,GATTGTAC,-0.0105 ± 0.043
14,CCAATACA,-0.11 ± 0.044
15,CACCATAA,0.0276 ± 0.045
16,ATCATTCG,-0.0417 ± 0.039
17,TACCAGCA,-0.0344 ± 0.084
18,GGGAGCAC,-0.139 ± 0.0078
19,AGGTGTGG,0.486 ± 0.0081
20,ACCTGTGA,0.3985 ± 0.0028
21,GTCTAGGA,-0.253 ± 0.011
22,GTATTTTA,-0.216 ± 0.071
23,AGATGGCG,0.027 ± 0.02
24,AGAGGCCA,0.0203 ± 0.091
25,GACTCCTC,0.0409 ± 0.052

row,Sequence,PBM E-score of 8-mer
1,AGTGCGAG,0.408 ± 0.022
2,TCGTCTAA,-0.0565 ± 0.057
3,CCGGGATC,-0.0846 ± 0.051
4,AGCCCGAT,-0.187 ± 0.0064
5,TGTCCCAA,-0.196 ± 0.019
6,ATCGTGGG,-0.0291 ± 0.046
7,ATAGTCTG,-0.0622 ± 0.038
8,CGTATCTC,-0.174 ± 0.0059
9,AGCGGTAA,-0.157 ± 0.0096
10,ATAGGCAC,-0.0913 ± 0.025
11,AGTTAGCA,0.284 ± 0.045
12,ACTATACG,-0.14 ± 0.043
13,ACCAGAGG,-0.0184 ± 0.029
14,ACAATAGG,-0.184 ± 0.045
15,AATAAAGA,-0.229 ± 0.056
16,AATGCATA,-0.221 ± 0.053
17,CACAGCCC,-0.114 ± 0.0023
18,GTGAAGGA,0.159 ± 0.075
19,CAAACCGA,-0.0123 ± 0.0069
20,ATGAACAC,-0.0339 ± 0.036
21,GCAAAGAA,-0.148 ± 0.0053
22,AAAAATTT,-0.309 ± 0.065
23,ACGAAAAT,-0.0695 ± 0.0046
24,GCTTCGCA,0.358 ± 0.017
25,AACAGGGG,-0.15 ± 0.039

row,Sequence,PBM E-score of 8-mer
1,AGGGCAAG,-0.277 ± 0.015
2,ATACGATG,-0.0862 ± 0.062
3,GAGCGAGC,-0.0313 ± 0.043
4,ACGTATGG,-0.215 ± 0.041
5,ACTTCAAG,-0.106 ± 0.081
6,ACTGTCTA,-0.0226 ± 0.061
7,ACTCTCAG,0.0254 ± 0.038
8,ACCCTGCT,-0.0729 ± 0.034
9,CGTCGACA,0.251 ± 0.031
10,GACAAGCC,0.1546 ± 0.00077
11,CCGGAAAC,-0.0822 ± 0.012
12,GGTCAGAA,-0.143 ± 0.051
13,GGAATTAA,-0.262 ± 0.058
14,CATACAAG,-0.193 ± 0.069
15,CCATGAGC,-0.0466 ± 0.013
16,CTCCGAAC,-0.0378 ± 0.058
17,ATGTGTTG,0.381 ± 0.014
18,AGGCTTGG,-0.225 ± 0.031
19,AACCCGCA,-0.0571 ± 0.0062
20,GAGTCGAC,0.107 ± 0.061
21,AGAAAGTC,-0.197 ± 0.0026
22,ATAAATCG,-0.0686 ± 0.065
23,ACATAGTC,-0.22 ± 0.038
24,ACCTGTGC,0.151 ± 0.018
25,GGTTGCTA,-0.000465 ± 0.025

row,Sequence,PBM E-score of 8-mer
1,CGAGTGAG,0.198 ± 0.029
2,GTCTTCGA,-0.205 ± 0.057
3,TCTCCAGA,-0.0714 ± 0.033
4,AAGAGTGA,0.219 ± 0.031
5,AGAACACT,0.0626 ± 0.08
6,GCGTCATA,0.162 ± 0.073
7,CTACCAAA,-0.0631 ± 0.0097
8,GACTGGGA,-0.078 ± 0.025
9,ATAGCGAG,0.181 ± 0.045
10,GACAGGGC,-0.2295 ± 0.00042
11,CTCCCAAC,-0.0533 ± 0.028
12,ACTCAGCA,-0.089 ± 0.02
13,CTCGTCGC,0.13 ± 0.024
14,AGGTCAAA,-0.245 ± 0.0091
15,GTCGGATA,-0.201 ± 0.019
16,ACTATATC,-0.0434 ± 0.083
17,CATAGCTA,-0.353 ± 0.012
18,ATGGAGAG,-0.214 ± 0.029
19,CGAGGCCA,-0.00878 ± 0.048
20,AGGCGACG,0.301 ± 0.066
21,GGGGACCC,-0.0329 ± 0.083
22,AATCTCCT,-0.0342 ± 0.087
23,CCCGTGAC,0.134 ± 0.0048
24,TCAGTCAA,-0.2 ± 0.012
25,GATTGCGC,0.211 ± 0.032

row,Sequence,PBM E-score of 8-mer
1,CAGGGCGC,0.154 ± 0.032
2,CGCGGAAC,-0.0666 ± 0.02
3,GGCGACAA,0.3676 ± 0.0007
4,ACAGCCAA,0.00932 ± 0.037
5,ACAAGGGC,-0.0968 ± 0.043
6,AGTGTAAG,0.26 ± 0.072
7,CCCTAAGG,-0.257 ± 0.032
8,AGCGGAGA,-0.000225 ± 0.0072
9,ATTTTGGC,-0.222 ± 0.022
10,ACTTTAAC,0.0899 ± 0.06
11,ACTGGTTA,-0.0491 ± 0.0029
12,ACAGGCCA,0.0135 ± 0.02
13,ATATCCCA,0.0562 ± 0.021
14,CAGTTGTA,-0.0476 ± 0.062
15,CGTCAATC,0.16 ± 0.018
16,AGAAGTAG,-0.229 ± 0.025
17,TACCCCGA,-0.09 ± 0.0015
18,GTACAAAA,-0.168 ± 0.04
19,ACTCAAGG,-0.108 ± 0.013
20,ATTTCACC,0.0204 ± 0.024
21,CAACGTTC,0.0585 ± 0.1
22,CTTTCCTA,-0.298 ± 0.043
23,AGGTTGGA,-0.197 ± 0.0089
24,ATCGTGTG,0.221 ± 0.006
25,CTGTTGAA,-0.0895 ± 0.024

row,Sequence,PBM E-score of 8-mer
1,ACCGTCTC,0.063 ± 0.002
2,CCGTTGAC,0.296 ± 0.013
3,ACCGACCA,-0.169 ± 0.029
4,ATCAAGGA,-0.1417 ± 0.00036
5,AAAGATCA,-0.228 ± 0.15
6,ACACCTAC,0.462 ± 0.0061
7,ATGTAAAA,-0.171 ± 0.019
8,CCTTTCCC,-0.078 ± 0.009
9,CCATCTCG,-0.00959 ± 0.012
10,CTGGTGTA,0.104 ± 0.033
11,ACGATTGG,-0.21 ± 0.086
12,AGCGGTTA,0.0516 ± 0.0084
13,AGGGAGCG,-0.0291 ± 0.064
14,ATGCCTTC,-0.0248 ± 0.021
15,ATATTCAT,-0.205 ± 0.0041
16,CATACCGG,-0.163 ± 0.025
17,AAAATCAG,-0.234 ± 0.017
18,CAAGGTAA,-0.0662 ± 0.017
19,ATGGATTG,-0.209 ± 0.013
20,CTCTTATC,-0.00596 ± 0.037
21,CTTATCAA,0.0727 ± 0.015
22,GCTCTACA,-0.0837 ± 0.0077
23,AGTACTAC,-0.3701 ± 0.00051
24,AGAGAAGC,-0.204 ± 0.054
25,GGCTGGCA,-0.108 ± 0.066

row,Sequence,PBM E-score of 8-mer
1,AACCATCA,0.0714 ± 0.047
2,ATTCATAC,-0.0215 ± 0.0084
3,GATTTTAA,-0.14 ± 0.056
4,ACAACAGG,0.147 ± 0.037
5,CTAAAAAA,-0.0996 ± 0.066
6,ATGAGTGC,-0.0309 ± 0.056
7,ATGCAAAT,-0.132 ± 0.12
8,CTGCACAG,0.028 ± 0.032
9,GGGAAGAC,0.106 ± 0.0049
10,TAGCTAAA,-0.235 ± 0.044
11,AGGGATGG,-0.259 ± 0.011
12,AGTTTTGC,0.0924 ± 0.062
13,CGGACTAA,-0.123 ± 0.0069
14,CACACCAG,0.386 ± 0.036
15,ACGACGCA,-0.151 ± 0.08
16,AATCCCCA,0.114 ± 0.013
17,GGTACTAC,-0.3 ± 0.033
18,CTTCGGGC,-0.248 ± 0.054
19,AGTAGCCC,-0.239 ± 0.026
20,CGCAGTTC,0.119 ± 0.043
21,CCACTAAG,-0.0519 ± 0.021
22,AGTGGCAT,0.0645 ± 0.066
23,GCGAAGCA,0.16 ± 0.024
24,AGATTTTA,-0.0586 ± 0.042
25,TATTGGGA,-0.31517 ± 0.00024

row,Sequence,PBM E-score of 8-mer
1,GGAGGACC,-0.265 ± 0.0099
2,CACCGATG,-0.00494 ± 0.095
3,CCCGATTA,-0.0245 ± 0.038
4,AGGACTGC,-0.254 ± 0.032
5,AGACTCAG,-0.189 ± 0.057
6,GAATTCAC,0.14 ± 0.029
7,GTATCCAA,-0.16 ± 0.019
8,CACCGGAA,-0.0812 ± 0.0033
9,CCATGTGA,0.217 ± 0.044
10,AAATTAGA,-0.171 ± 0.025
11,TCCAATCA,-0.0327 ± 0.079
12,CTCGTTGA,0.153 ± 0.043
13,ATTGACAG,0.102 ± 0.07
14,GAAAGTCC,-0.142 ± 0.031
15,ACCTTTGA,0.113 ± 0.031
16,ATCCTCAA,-0.102 ± 0.006
17,GCAATCGA,-0.0853 ± 0.0027
18,ACGTCATG,-0.133 ± 0.012
19,ATTACGCG,0.19 ± 0.028
